This list was built around the results that the source calls inconclusive (neither active nor inactive); the mix of calls is not that of the screen. Calls follow the shape of the dose curve; as a rule, active = well fitted cell-killing curve with a large enough effect in the repeat runs; inconclusive = weak or mixed curves, or effect the other way; inactive = no such curve, though single readings can be large or run the other way. Where the call is inconclusive, the potency comes from a doubtful curve fit.
Test: Caspase-3/7 induction in CHO-K1 cells by small molecules, qHTS cell viability counter screen (AID 1346979); also: nearly all actives have a fitted effect of over 35% in size
Conditions: CellTiter-Fluor fluorescence, 17 h; series mostly up to 92.4 µM
Procedure, shortened: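 Seeding: 1,500 CHO-K1 cells/well. Rest: 5hr, 37C. Treatment: compounds in DMSO, 16hr. Read: CellTiter-Fluor, 1hr, fluorescence.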
Potency is read from the fitted curve at half-maximal effect; tags tell the direction and shape of the fitted curve.

SMILES | Potency
CC1=C(/C=C/C(C)=C\C=C\C(C)=C\C(=O)O)C(C)(C)CCC1 | inconclusive: 68.6 µM [cytotoxic, single point]
NC1CCN(c2nc3c(cc2F)c(=O)c(C(=O)O)cn3-c2ccc(F)cc2F)C1 (configuration not stated) | inconclusive: 29.8 µM [cytotoxic, single point]
CCc1cc2cc(OC)c(OC)cc2c(Cc2ccccc2)n1 | inconclusive: 33.5 µM [cytotoxic, single point]
CCCCCC(C)OC(=O)COc1ccc(Cl)c2cccnc12 (configuration not stated) | inconclusive: 68.6 µM [cytotoxic, single point]
CCCOc1ccc2c(c1)CC[C@@H]1[C@@H]2CC[C@]2(C)C(OC)CC[C@@H]12 (some centres not stated) | inconclusive: 33.5 µM [cytotoxic, single point]
O=C(Nc1ccccc1)Nc1ccccc1 | inconclusive: 68.9 µM [cytotoxic]
CC1(C)[C@@H](O)CC[C@]2(C)[C@H]3C(=O)C=C4[C@@H]5C[C@@](C)(C(=O)O)CC[C@]5(C)CC[C@@]4(C)[C@]3(C)CC[C@@H]12 | inconclusive: 67.8 µM [cytotoxic, single point]
